We go through 44 compounds from publication PMC4336329 (PLoS ONE, 2015).

About 14,000 (4.5%) of roughly 310,000 compounds showed an effect of 50% or more. The effect is printed as a negative number. This is one part of the list. Where a SMILES comes first, the peptide text is derived from it. [ ]: non-standard residue; d: D form. The star is where a group is joined. ξ: configuration not given here. Tos = Cc1ccc(S(=O)(=O)*)cc1; Inp = O=C(O)C1CCNCC1; ξP = O=C(O)C1CCCN1
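Further: peak tail current of the secondary pulse compared with the same well before compound.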

The target in this test is human ether-à-go-go-related gene (hERG) potassium channel (human, UniProt Q12809). Briefly: primary screen, population patch clamp on CHO cells stably expressing hERG.
Sequence of human ether-à-go-go-related gene (hERG) potassium channel (Q12809 whole entry, looked up): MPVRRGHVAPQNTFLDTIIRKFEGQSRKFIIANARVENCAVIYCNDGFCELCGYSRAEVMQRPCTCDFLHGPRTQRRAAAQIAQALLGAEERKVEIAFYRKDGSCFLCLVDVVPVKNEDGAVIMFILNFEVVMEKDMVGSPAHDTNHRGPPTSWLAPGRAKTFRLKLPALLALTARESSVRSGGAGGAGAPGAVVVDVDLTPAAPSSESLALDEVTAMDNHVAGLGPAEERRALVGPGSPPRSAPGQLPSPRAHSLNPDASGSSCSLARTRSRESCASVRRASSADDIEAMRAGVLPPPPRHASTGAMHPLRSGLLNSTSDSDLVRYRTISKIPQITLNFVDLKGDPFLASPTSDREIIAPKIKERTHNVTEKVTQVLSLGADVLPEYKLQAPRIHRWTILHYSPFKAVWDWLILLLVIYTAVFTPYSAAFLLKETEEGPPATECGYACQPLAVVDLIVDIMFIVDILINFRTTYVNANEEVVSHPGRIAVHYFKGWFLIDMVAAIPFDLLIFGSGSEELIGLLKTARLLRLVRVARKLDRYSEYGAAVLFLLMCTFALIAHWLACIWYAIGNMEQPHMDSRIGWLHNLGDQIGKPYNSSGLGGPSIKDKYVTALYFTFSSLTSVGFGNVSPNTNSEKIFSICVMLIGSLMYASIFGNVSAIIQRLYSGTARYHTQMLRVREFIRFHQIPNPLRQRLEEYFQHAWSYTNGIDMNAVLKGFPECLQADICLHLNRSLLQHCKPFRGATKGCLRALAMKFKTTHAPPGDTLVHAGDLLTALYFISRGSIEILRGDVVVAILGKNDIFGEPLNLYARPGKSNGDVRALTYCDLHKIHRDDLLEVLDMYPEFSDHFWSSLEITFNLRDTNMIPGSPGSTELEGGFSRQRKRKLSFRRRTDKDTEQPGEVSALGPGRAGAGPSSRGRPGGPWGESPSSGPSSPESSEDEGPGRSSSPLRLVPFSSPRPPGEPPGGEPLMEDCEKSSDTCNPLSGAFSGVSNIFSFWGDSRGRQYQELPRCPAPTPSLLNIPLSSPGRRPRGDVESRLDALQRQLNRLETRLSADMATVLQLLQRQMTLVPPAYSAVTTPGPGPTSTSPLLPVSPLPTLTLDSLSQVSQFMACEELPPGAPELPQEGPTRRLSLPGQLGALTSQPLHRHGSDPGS
Take `CC(=O)Nc1ccc(NC(=O)c2ccc(COc3ccc(C)cc3)o2)cc1`: the “hERG current change (%, negative = inhibition) at 10uM” value was determined as 16.4%.
As for `Brc1ccccc1-c1nc2c3ccccc3ncn2n1`, the “hERG current change (%, negative = inhibition) at 10uM” value is given as -15%.
With `CN(C)S(=O)(=O)c1ccc(NC(=O)CN2CCN(c3ccccn3)CC2)cc1`, the “hERG current change (%, negative = inhibition) at 10uM” value was 13.9%.
For the compound `Cc1nnc(Nc2ccc(C(=O)N3CCOCC3)cc2)c2ccccc12`, the “hERG current change (%, negative = inhibition) at 10uM” value turned out to be 7.52%.
For `COC(=O)c1ccccc1OC(=O)c1cccnc1`, the “hERG current change (%, negative = inhibition) at 10uM” value worked out at 13.1%.
With `CCCn1c(N)nc2ccccc21`, the “hERG current change (%, negative = inhibition) at 10uM” value is 8.05%.
With `Cc1ccc(S(=O)(=O)N2CCC(C(=O)N3CCCC3C(=O)N[C@@H](CC(C)C)C(=O)NCC(N)=O)CC2)cc1` (stereo partly drawn) ({Tos-Inp}-[ξP]-Leu-Gly-NH2) the figure was -0.797%.
Regarding `Cl.Clc1ccc(Nc2nc3cccnc3s2)cc1`, the “hERG current change (%, negative = inhibition) at 10uM” value turned out to be 35%.
In the case of `COc1ccc(/C=C(\C#N)C(=O)ONC2=NCCCCC2)cc1`, the “hERG current change (%, negative = inhibition) at 10uM” value turned out to be 25.3%.
For the compound `O=C(NNC(=O)c1ccccc1O)c1ccc(Cl)c(S(=O)(=O)N2CCc3ccccc32)c1`, the “hERG current change (%, negative = inhibition) at 10uM” value is given as -3.31%.
As to `Cc1noc(C)c1COC(=O)COc1ccc(C#N)cc1`, the “hERG current change (%, negative = inhibition) at 10uM” value is on record as 2.8%.
`O=c1[nH]cnc2sc3c(c12)CCN(Cc1ccccc1)C3`: the “hERG current change (%, negative = inhibition) at 10uM” value was determined as 16.1%.
With `COC(=O)c1ccc(Cc2ccccc2)o1`, the “hERG current change (%, negative = inhibition) at 10uM” value stood at 1.41%.
For the compound `Cl.N/C(=N\N=C/c1ccc(Br)cc1)N/N=C\c1ccc(Br)cc1`, the “hERG current change (%, negative = inhibition) at 10uM” value is on record as 16%.
Next, `COC(=O)c1ccc(NC(=S)NCCc2ccc(OC)cc2)cc1`: 22%; `CC(C)C(=O)Nc1ccc(C(=O)c2ccccc2)cc1`: -19.8%.
Next, `CN(CCOC(=O)c1cccc(F)c1)Cc1ccccc1.Cl`: -28.1%.
For the compound `Clc1ccc(/C=C/c2ncc3ccccn23)cc1`, the “hERG current change (%, negative = inhibition) at 10uM” value came to 3.23%.
Take `CC1(C)Cc2c(sc(NC(=O)c3ccc(S(=O)(=O)N4CCCC4)cc3)c2C#N)C(C)(C)N1`: the “hERG current change (%, negative = inhibition) at 10uM” value is -8.79%.
For `Cc1ccc(F)c(NC(=O)C2CCCCC2C(=O)O)c1` (centres unmarked), the “hERG current change (%, negative = inhibition) at 10uM” value is on record as 8.23%.
With `CCn1c(CCNC(=O)c2ccc(Cl)cc2Cl)n[nH]c1=S`, the “hERG current change (%, negative = inhibition) at 10uM” value was -10.3%.
Next, `O=C(Cn1c(=O)n(Cc2ccc(F)cc2)c(=O)c2ccccc21)NCC1CCCO1` (centres unmarked): -2.66%.
Next, `O=C(COC(=O)c1ccccc1SCC(=O)N1CCCC1)NCc1ccccc1`: -12.1%.
With `NC(=O)c1c(NC(=O)c2cccnc2Cl)sc2c1CCCC2`, the “hERG current change (%, negative = inhibition) at 10uM” value is -1.56%.
Turning to `N#CSc1ccc2oc(C3=NCCN3)cc2c1`, the “hERG current change (%, negative = inhibition) at 10uM” value was 0.521%.
As to `Cc1ccc(-c2nnc(SCC(=O)NNC(=O)COc3ccccc3C)n2C)cc1`, the “hERG current change (%, negative = inhibition) at 10uM” value was found to be 12.7%.
On to `O=[N+]([O-])c1ccc(CN2CCN(c3ccccc3Cl)CC2)o1`, for which the “hERG current change (%, negative = inhibition) at 10uM” value worked out at 11.9%.
Take `COc1ccc(OCC(=O)N/N=C\c2ccco2)cc1`: the “hERG current change (%, negative = inhibition) at 10uM” value is listed as 10.6%.
With `O=C(Cc1coc2ccc3ccccc3c12)NCc1ccccc1`, the “hERG current change (%, negative = inhibition) at 10uM” value was -4.58%.
Consider `Cc1cc(Cl)ccc1OCC(=O)OCC(=O)Nc1ccc(F)c([N+](=O)[O-])c1`, for which the “hERG current change (%, negative = inhibition) at 10uM” value is listed as -1.18%.
On to `Cc1cc(C(=O)NCCC2=CCCCC2)ccc1[N+](=O)[O-]`, for which the “hERG current change (%, negative = inhibition) at 10uM” value is -27.5%.
Consider `O=C(COC(=O)c1n[nH]c2ccccc12)NCc1ccccc1`, for which the “hERG current change (%, negative = inhibition) at 10uM” value is listed as -24.5%.
Take `COc1ccccc1CC(=O)Nc1ccc([N+](=O)[O-])cc1OC`: the “hERG current change (%, negative = inhibition) at 10uM” value stood at 5.69%.
On to `O=C(CCC(=O)c1ccccc1)Nc1ccccc1`, for which the “hERG current change (%, negative = inhibition) at 10uM” value turned out to be 17.5%.
As to `CCOC(=O)C1CCCN(CCC(=O)Nc2ccc(C)cc2)C1.Cl` (centres unmarked), the “hERG current change (%, negative = inhibition) at 10uM” value is -30.4%.
In the case of `COc1ccc(C(=O)Nc2ccccc2C(=O)NCCN2CCOCC2)cc1`, the “hERG current change (%, negative = inhibition) at 10uM” value is given as -9.6%.
With `COc1ccc(NC(=O)CSCC(=O)Nc2ccc(C)c(S(=O)(=O)N3CCCCCC3)c2)cc1` the figure was -36.9%.
For the compound `CCNC(=S)N/N=C(\C)c1ccc2ccccc2c1`, the “hERG current change (%, negative = inhibition) at 10uM” value amounted to 13.8%.
`O=C(CCC(NC(=O)OCc1ccccc1)C(=O)OCC(=O)N1CCCCC1)OCC(=O)N1CCCCC1` (centres unmarked): the “hERG current change (%, negative = inhibition) at 10uM” value is 2.72%.
Next, `COc1ccc(C(=O)CN(CCC(=O)O)S(=O)(=O)c2ccc([N+](=O)[O-])cc2)cc1`: -1.15%; `O=C(Nc1ccc2c(c1)CN(Cc1ccc(CO)o1)CC2)c1ccc(C(F)(F)F)cc1`: -24.1%; `Oc1ccc(Br)cc1/C=N/N1CCN(Cc2ccccc2)CC1`: 9.35%.
In the case of `CCN(/C(N)=N/c1nc(C)cc(C)n1)c1ccccc1`, the “hERG current change (%, negative = inhibition) at 10uM” value was -6.01%.
With `Cc1ccc(NC(=O)COC(=O)C2CC3C=CC2C3)cc1S(=O)(=O)N1CCCCC1` (centres unmarked) the figure was -7.32%.
